Laboratory results published in publication PMC6919601, “Identification of Plasmodium dipeptidyl aminopeptidase allosteric inhibitors by high throughput screening” (PLoS ONE, 2019).
In all, about 110,000 compounds went through this assay and about 230 (0.21%) showed an effect of 50% or more. The list shows a part of the results.

Biological target: DPAP1 (Plasmodium falciparum, UniProt Q8IIJ9)
Assay: primary screen, percent inhibition; read by cleavage of a fluorogenic dipeptide substrate; higher = more effect of the substance
Set-up: species or system P. falciparum D10 trophozoite lysates; single well
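Also: 30 min substrate incubation versus DMSO and 10 µM JCP410 controls.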

Sequence of DPAP1 (Q8IIJ9 whole entry, looked up): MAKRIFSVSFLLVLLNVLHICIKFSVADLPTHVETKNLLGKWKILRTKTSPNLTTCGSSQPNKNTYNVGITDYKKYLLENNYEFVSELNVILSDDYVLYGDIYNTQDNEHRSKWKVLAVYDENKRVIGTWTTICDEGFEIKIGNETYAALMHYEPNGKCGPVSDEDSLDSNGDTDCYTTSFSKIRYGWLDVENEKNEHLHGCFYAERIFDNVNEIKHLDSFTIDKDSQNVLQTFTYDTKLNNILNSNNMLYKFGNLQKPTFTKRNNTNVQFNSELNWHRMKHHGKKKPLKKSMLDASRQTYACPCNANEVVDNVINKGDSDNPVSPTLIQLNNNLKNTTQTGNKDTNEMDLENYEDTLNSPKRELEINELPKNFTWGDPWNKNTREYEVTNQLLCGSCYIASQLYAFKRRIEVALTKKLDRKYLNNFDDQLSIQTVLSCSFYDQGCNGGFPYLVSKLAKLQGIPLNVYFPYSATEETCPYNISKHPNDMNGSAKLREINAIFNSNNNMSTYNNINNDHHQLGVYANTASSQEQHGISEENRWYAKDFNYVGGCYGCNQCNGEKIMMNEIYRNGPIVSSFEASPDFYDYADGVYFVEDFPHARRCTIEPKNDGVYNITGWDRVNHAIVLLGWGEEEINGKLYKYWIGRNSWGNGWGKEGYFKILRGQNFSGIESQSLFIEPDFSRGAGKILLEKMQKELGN

| SMILES | % Inhibition @ 10 uM [%] |
| --- | --- |
| CN1CCN(C(=O)c2ccco2)CC1 | -3.99 |
| O=C(CCCOc1ccc(Cl)cc1Cl)NC1CCCCC1 | -3.94 |
| COc1ccccc1C(=O)NC(C(C)C)C(C)C | 4.31 |
| COc1cc(/C=C2\CCc3ccccc3C2=O)ccc1OC(C)C | -0.503 |
| CCC1(C)CC(c2csc(N)n2)CCO1 (centres unmarked) | -0.0369 |
| COC(=O)c1cc(S(=O)(=O)NCC2CCN(Cc3ccc(C)cc3)C2)c[nH]1 (centres unmarked) | -2.3 |
| COc1ccc(NC(=O)c2ccc(CN3CCOCC3)cc2)cc1OC | 2.13 |
| CC(C)(C)n1ncc(Cl)c(Cl)c1=O | 0.166 |
| Cc1nc(CSc2ncnc3scc(-c4ccccc4)c23)cs1 | 2.4 |
| CC(C)C[C@H](NC(=O)c1cc(-c2ccccc2Cl)no1)C(=O)NCC#N | -6.98 |
| COc1cc(C(=O)Nc2ccc(C(=O)NC(C)(C)C)cc2)cc(OC)c1OC | -4.39 |
| CCOC(=O)N1CCN(C(=O)Cn2ncc3c4ccccc4n(C)c3c2=O)CC1 | -1.92 |
| COc1cccc(-c2nn(C)c(Cl)c2C=O)c1 | 1.91 |
| CCc1ccc(C(C)NC(=O)c2cccs2)cc1 (centres unmarked) | -8.23 |
| CCN(CC)CC(O)COc1ccc(C(C)(C)C)cc1 (centres unmarked) | 1.35 |
| COc1cc(NC(=O)c2sc3nc4c(cc3c2N)CCCCC4)cc(OC)c1OC | 3.29 |
| O=C(CSc1nc2c(c(=O)n1Cc1ccccc1)SCC2)NCc1ccc(F)cc1 | 6.3 |
| Cc1cccc(N2CCN(C(=O)c3csc4ccccc34)CC2C)c1 (centres unmarked) | 1.68 |
| COc1ccccc1NC(=O)c1sc(Cl)nc1-c1ccccc1 | 1.83 |
| CCOc1ccc(CCNC(=O)Cn2nc(CC)n3c(cc4sccc43)c2=O)cc1OCC | 6.46 |
| O=C(Cc1ccccc1)Nc1c(O)c2ccccc2oc1=O | -0.602 |
| Cc1cccc(OCCCN2CCOCC2)c1C | -0.546 |
| COC(=O)Nc1ccc(S(=O)(=O)N2CCC(C(=O)Nc3cccc(OC)c3)CC2)cc1 | 4.12 |
| O=C(NCc1ccncc1)Nc1ccc(Cl)cc1 | -0.67 |
| CC(C)N(C(=O)Cc1c(O)nc2ccccc2c1O)C(C)C | 4.99 |
| COc1ccc(C2=NOC(C(=O)N3CCOCC3)C2)cc1 (centres unmarked) | 7.66 |

| SMILES | % Inhibition @ 10 uM [%] |
| --- | --- |
| Clc1ccccc1-c1nnc(-c2ccccc2)o1 | -2.78 |
| CCn1cc(Cl)c(C(=O)Nc2nc(-c3cc(OC)ccc3OC)cs2)n1 | 5.83 |
| CC(C)CC(NC(=O)c1ccc(Br)c([N+](=O)[O-])c1)C(N)=O (centres unmarked) | -8.49 |
| Cc1cc(C(=O)NC23CC4CC(CC(C4)C2)C3)c(C)o1 | 3.49 |
| O=C(NCc1ccccc1)c1ccc(CS(=O)(=O)c2ccccc2)o1 | -3.09 |
| CCOc1cc(C(=O)NCc2ccco2)cc(OCC)c1OCC | 1.63 |
| O=S(=O)(c1cccc2nonc12)N1CCN(c2ccccc2)CC1 | -1.04 |
| O=C(Cn1ncn2c(cc3ccccc32)c1=O)NCc1cccs1 | -3.47 |
| CCOC(=O)c1c(OCC)[nH]c2ccc(O)cc12 | -5.62 |
| Cc1nn(-c2cccc3ccccc23)c(O)c1/C=N/c1ccc(C(=O)O)c(O)c1 | 0.673 |
| CC(C)(C)C1CCc2c(sc(NC(=O)c3cc(-c4ccco4)on3)c2C#N)C1 (centres unmarked) | -0.591 |
| COC(=O)c1ccc(/C=C2/SC(=O)NC2=O)cc1 | 4.54 |
| Oc1ccc2ccccc2c1CNc1nc(-c2ccccc2)cs1 | -4.74 |
| Cc1ccc(F)c(NC(=O)Nc2cccc3ccccc23)c1 | -7.87 |
| CCCc1[nH]nc2c1C(c1cc3c(cc1Br)OCO3)C(C#N)=C(N)O2 (centres unmarked) | 4.07 |
| O=C(Cn1nnc2ccccc21)Nc1ccc(Br)cc1 | 3.31 |
| C/C(Cl)=C/Cn1c(SCc2cccc(Br)c2)nc2c1c(=O)[nH]c(=O)n2C | 4.11 |
| FC(F)(F)c1cccc(N2CCN(Cc3csc(-c4ccccc4)n3)CC2)c1 | 2.23 |
| COc1ccc2cc3c(N)nn(C(=O)/C=C/c4ccccc4OC(C)C)c3nc2c1 | 13.7 |
| O=c1/c(=C/c2ccc3c(c2)OCO3)sc2nc3ccccc3n12 | -1.75 |
| CC1(C)CC(=O)c2cc3c(N)c(C(=O)NCc4ccco4)sc3nc2C1 | -2.14 |
| CC1(C)Cc2ccccc2C(Nc2nc(-c3ccccc3)cs2)=N1 | 2.47 |
| Cc1nn(-c2ccccc2)c2sc(C(=O)n3cccn3)cc12 | 3.98 |
| Fc1ccccc1COc1ccc(Br)cc1CNCc1cccnc1 | 0.755 |
| COc1ccc(C2SCC(=O)Nc3c2c(C)nn3C2CCOC(C)(C)C2)cc1OC (centres unmarked) | 6.01 |
| COC(=O)C(Cc1c[nH]c2ccccc12)NC(=O)c1c(C)cc(C)cc1C (centres unmarked) | -5.51 |

| SMILES | % Inhibition @ 10 uM [%] |
| --- | --- |
| Cc1ccccc1NC(=O)c1cc(S(=O)(=O)N2CCCCCC2)ccc1Cl | 14.3 |
| CCCOc1ccc(N2C(=O)CC(SCC(=O)Nc3ccc(F)cc3)C2=O)cc1 (centres unmarked) | -5.13 |
| COc1ccc(C2/C(=C(\O)OC(C)C)C(C)=Nc3ncnn32)c(OC)c1 (centres unmarked) | 3.87 |
| CC1CCCCN1CCCNC(=O)CN1N=C(c2ccccc2)CCC1=O (centres unmarked) | 6.67 |
| CCCCCNC(=O)c1ccc(OCC)cc1 | 11.2 |
| COc1ccc(-c2nnc3n(CC(C)C)c(=O)c4ccccc4n23)cc1 | 1.68 |
| Cc1ccccc1-c1nnn(CC(=O)O)n1 | -1.72 |
| COc1cc(CNC(=O)c2nc(-c3ccc(-n4cccc4)cc3)no2)cc(OC)c1 | 1.84 |
| Cc1nn(C)cc1C(=O)Nc1c(C)nn(Cc2ccc(Cl)cc2Cl)c1C | 2.09 |
| Cc1cc(N)cc(C)c1-n1nc2ccccc2n1 | -16.5 |
| CC1CCc2c(sc(NC(=O)c3ccc(Br)o3)c2C#N)C1 (centres unmarked) | -6.51 |
| Cc1c2cnn(CC(=O)NC3CCCCCC3)c(=O)c2c(C)n1Cc1ccc(Cl)cc1 | 1.02 |
| CO/C(O)=C1/C(C)=NC2=C(C(=O)CCC2)C1c1ccc(Cl)cc1 (centres unmarked) | -3.14 |
| CCCN(CCC)C(=O)c1sc2nc(-c3ccccc3)cn2c1C | 3.19 |
| Cc1ccsc1CCNS(=O)(=O)c1ccc(-c2cc(C(F)(F)F)no2)s1 | 5.98 |
| COc1cc(CN2CCN(C3CCC(c4ccccc4)CC3)CC2)cc(OC)c1OC (centres unmarked) | 0.611 |
| Cc1ccc(C(=O)Nc2ccccc2Cl)cc1 | 1.35 |
| Cc1cccc(NC(=O)c2cccc(S(=O)(=O)N3CCOCC3)c2)c1 | 1.64 |
| O=C(O)c1ccccc1C(=O)N(c1ccccc1)c1ccccc1 | -1.43 |
| Cc1ccc(S(=O)(=O)C2CS(=O)(=O)CC2O)cc1 (centres unmarked) | -2.66 |
| CCn1c(SCC(=O)Nc2ccc(OC)cc2)nc2ccccc2c1=O | 1.96 |
| CCOC(=O)C1=C(CN(C)C2CCCCC2)NC(=O)NC1c1cccs1 (centres unmarked) | 2.9 |
| CCOc1ccc(C(=O)Nc2nc3c(s2)C(=O)CC(C)(C)C3)cc1OCC | 6.97 |
| O=C(Nc1ccc2[nH]c(-c3ccco3)nc2c1)c1cccs1 | 0.843 |
| COc1ccc(C(=O)Nc2ccccc2F)c(OC)c1 | -0.088 |
| COc1cccc(C(=O)N[C@@H](CC(C)C)C(=O)NCC#N)c1 | -3.97 |

| SMILES | % Inhibition @ 10 uM [%] |
| --- | --- |
| O=C(CSc1ccc2nnc(-c3ccc(F)cc3)n2n1)c1ccccc1 | 7.87 |
| O=C(CSc1nc2ccccc2nc1N1CCCC1)N1CCN(C2CCCCC2)CC1 | -5.64 |
| Cc1cc(O)c(C(=O)/C=C/c2ccc([N+](=O)[O-])cc2)c(=O)o1 | 1.29 |
| CCCCN(C)C1CCN(CCc2ccccc2)CC1 | 4.54 |
| CCOc1ccccc1N1CCN(Cc2ccc(CC)cc2)CC1 | -0.127 |
| COc1cccc(CNc2nc3ccc(Cl)cc3n3nnnc23)c1 | 0.454 |
| Cc1cc(C)n2nc(S(=O)(=O)Nc3c(Cl)cccc3Cl)nc2n1 | -7.76 |
| Cc1ccc(/C(=N\C(=S)Nc2ccc([N+](=O)[O-])cc2)NCS(=O)(=O)c2ccccc2)cc1 | -5.28 |
| COc1ccc2c(c1)CCc1sc(NC(=O)c3ccc(OC)c(OC)c3)nc1-2 | 4.03 |
| Cc1cccc(CNC(=O)C2=Cc3sc(C)c(C)c3CS2)c1 | 4.17 |
| Clc1ccc(OCc2nc3ccccc3[nH]2)cc1 | 0.219 |
| Cc1ccc(C)c(-c2csc(Nc3ccc(F)cc3)n2)c1 | -2 |
| COCc1cc(C)nc2sc(C(=O)OC)c(NC(=O)c3ccco3)c12 | -5.06 |
| COc1ccc(C2=NN(CC(=O)N3CCCCC3)C(=O)CC2)cc1 | -5.43 |
| CCc1cccc2c(C#N)cn(CC(=O)N(CC)CC)c12 | -1.84 |
| Cc1csc(NC(=O)c2cc3ccc4cccnc4c3[nH]2)n1 | 13.4 |
| COc1ccc(CNC(=O)c2ccc(-n3cnc4cccnc43)cc2)cc1 | 1.63 |
| Cc1ccc(OCCCN2CCOCC2)c(C)c1 | 3 |
| Cc1ccc(NC(=O)COc2ccc(Cl)cc2)cc1F | 0.605 |
| COc1ccccc1OCCCCN1CCCC1 | -6.82 |
| CCOC(=O)c1[nH]c2ccccc2c1NC(=O)c1c(OCC)ccc2ccccc12 | 5.4 |
| Cc1cc(C)c(OCCN2CCCCC2)c(Cl)c1 | -2.97 |
| O=C(NC1CC1)c1cc(-c2ccccn2)nc2ccc(S(=O)(=O)N3CCOCC3)cc12 | -4.97 |
| COc1ccc(C(=O)NC2CCSC2=O)cc1 (centres unmarked) | 2.46 |
| COc1ccc(N2CCN(C(=O)CN(c3ccc(C)c(C)c3)S(=O)(=O)c3ccccc3)CC2)cc1 | -10.2 |
| Cc1nc2c(-c3ccccc3)c(C)nn2c(C)c1CC(=O)NC(C)CCc1ccco1 (centres unmarked) | 5.47 |
